Binding signal data for 23 sequences are collected here from PMC7819943, “Rice protein-binding microarrays: a tool to detect cis-acting elements near promoter regions in rice”.

This is one part of the list.

For the test, the target named is T1, OsWOX13 (Oryza sativa, UniProt Q5QMM3 1-267).
T1 sequence: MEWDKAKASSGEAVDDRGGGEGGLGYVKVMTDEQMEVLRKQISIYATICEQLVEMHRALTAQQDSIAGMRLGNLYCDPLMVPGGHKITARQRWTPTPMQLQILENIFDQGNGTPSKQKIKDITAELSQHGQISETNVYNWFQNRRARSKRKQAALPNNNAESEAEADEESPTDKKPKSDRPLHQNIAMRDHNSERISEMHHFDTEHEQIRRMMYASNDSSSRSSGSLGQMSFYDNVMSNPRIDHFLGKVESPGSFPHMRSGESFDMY
As to the kind of experiment: protein-binding microarray (RPBM); PBS, 2% BSA, 51.3 ng/ul salmon testes DNA, 50 uM zinc acetate, 200 nM TF, 25 C, 1 h; high values mean tight binding. The settings on record: protein: recombinant; tags: N-terminal polyhistidine and DsRed monomer fusion (pET32a); label: CyDye5-dUTP incorporated in the synthesized complementary strand; 3' TTTTT single-stranded linker to array surface; dsDNA, one strand shown. In outline:
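An Axon 4000B scanner gave the binding signal as per-feature fluorescence intensity in arbitrary units. This followed washing of a custom Agilent array that had been incubated for 1 h at 25 °C with 200 nM protein in PBS, 2% BSA, salmon testes DNA and 50 µM zinc acetate. The proteins were transcription factors fused at the N-terminus to polyhistidine and DsRed, expressed in E. coli BL21-CodonPlus and purified on Ni–NTA.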
With “CTATTAAATTGATTATATATGATTTGTAGTTTATAGTTGGCGGAGTCACCTAGTGCAG”, the binding signal was 65100 fluorescence intensity (a.u.).

With “GGAATCGATGTTAATTTTGTTACAGTATAAGAGGACGGTACGGAGTCACCTAGTGCAG”, the binding signal is 3270 fluorescence intensity (a.u.).

For “GCTAATTTAAATGTTTAAACTATGGTACTGATTGTTTTCTCGGAGTCACCTAGTGCAG”, the binding signal is 33900 fluorescence intensity (a.u.).

For “AACGTATGATTGATTGAGTTTTAATTATTACAAACTTAAACGGAGTCACCTAGTGCAG”, the binding signal is 35000 fluorescence intensity (a.u.).

Take “TTTAATTTCGAATTCCTACTTGAATTCTTCTTTATTTTCTCGGAGTCACCTAGTGCAG”: the binding signal is 4070 fluorescence intensity (a.u.).

For “AACTTGATTAAAAGGAATGTTGAGATAATGTGTTAGAGATCGGAGTCACCTAGTGCAG”, the binding signal was 12800 fluorescence intensity (a.u.).

For “CTAGACTGATAAATTATAGCGTAAAAGTTCTCGTACCGTTCGGAGTCACCTAGTGCAG”, the binding signal was 29800 fluorescence intensity (a.u.).

Regarding “TCTAATTTATACTTGATTTATTAGACACATTTTCCAAACACGGAGTCACCTAGTGCAG”, the binding signal is 25700 fluorescence intensity (a.u.).

Take “CATGGTAATTTTGCACCATTAATCTATGTACTAGTAGTAGCGGAGTCACCTAGTGCAG”: the binding signal was 5780 fluorescence intensity (a.u.).

In the case of “AATTGCCAAATTAAGTGAGGTTAATTAAGCACTGATGTCTCGGAGTCACCTAGTGCAG”, the binding signal was 8620 fluorescence intensity (a.u.).

For “ACATATTATTGACGTATAACCACATAAATAAATCCAAAGTCGGAGTCACCTAGTGCAG”, the binding signal was 7400 fluorescence intensity (a.u.).

In the case of “TTTTACTATAATGAATAATTTAGACAGAGGTATATTCAGACGGAGTCACCTAGTGCAG”, the binding signal was 5390 fluorescence intensity (a.u.).

As to “CACATACCTGATTTGATTGGTCCTAAAAGAGGATGCTAGACGGAGTCACCTAGTGCAG”, the binding signal is 31700 fluorescence intensity (a.u.).

Regarding “CTTCTATCATCAACGACAAATCTCCCGTTGTCTTGTCTTCCGGAGTCACCTAGTGCAG”, the binding signal is 4060 fluorescence intensity (a.u.).

Take “GTGTATCAATCATATGCCCTTTAATTTGAATTTAGAGATTCGGAGTCACCTAGTGCAG”: the binding signal was 21300 fluorescence intensity (a.u.).

Take “AGTAGCTAATCTATAAATCAATTCGTAGTTAAACAAAGAGCGGAGTCACCTAGTGCAG”: the binding signal was 13100 fluorescence intensity (a.u.).

As to “CCTTGATATGTTGGATTAGAGGAGAGACATGTTCGCTAGACGGAGTCACCTAGTGCAG”, the binding signal is 9730 fluorescence intensity (a.u.).

In the case of “CCTGAAATTATAAATTATAAGATTACGTGATGACAAATAACGGAGTCACCTAGTGCAG”, the binding signal is 8250 fluorescence intensity (a.u.).

“TAAAATCACGTTTTAAACGTAGCCACTTGTCCATTTTCCCCGGAGTCACCTAGTGCAG”: the binding signal was 4480 fluorescence intensity (a.u.).

Turning to “TGCCAATCCACGCGCTTAATTAGCTTAATGCATTAAAGCACGGAGTCACCTAGTGCAG”, the binding signal is 19300 fluorescence intensity (a.u.).

“GCTCTTAAATTTTAAGATGATTAATTTAGGTCTGGCCCGTCGGAGTCACCTAGTGCAG”: the binding signal is 22100 fluorescence intensity (a.u.).

Take “ATTGCACAATTAAATTGATCACCTCAGTGACAGCCTTGTTCGGAGTCACCTAGTGCAG”: the binding signal is 22600 fluorescence intensity (a.u.).

On to “ACACGTGATTTCTCACCGCTCGACGCTCGTCCTCTCCCCTCGGAGTCACCTAGTGCAG”, for which the binding signal was 6690 fluorescence intensity (a.u.).
